In PubChem BioAssay AID1030 (National Center for Advancing Translational Sciences (NCATS), 2008):
About 16,000 (7.3%) of roughly 220,000 compounds were called active. The shares of active, inactive and inconclusive entries below differ from those in the screen. Calls come from the whole dose curve; as a rule, active = well fitted inhibition curve with a large enough effect (not every such curve was filed as active); inconclusive = small, poorly fitted or top-dose-only effect, or another doubt; inactive = no such curve, though single readings can be large or run the other way. Potencies of inconclusive entries are left out as doubtful fits.
Potency is the fitted concentration of half-maximal effect; tags give direction and shape of the fitted curve.

The molecules below were run against Aldehyde dehydrogenase 1A1 (Homo sapiens) (UniProt P00352) (assay: qHTS Assay for Inhibitors of Aldehyde Dehydrogenase 1 (ALDH1A1)). Settings: Purified ALDH1A1, NADH fluorescence, propionaldehyde substrate; series mostly up to 75.3 µM.
Chain of UniProt P00352 (P00352 whole entry, looked up): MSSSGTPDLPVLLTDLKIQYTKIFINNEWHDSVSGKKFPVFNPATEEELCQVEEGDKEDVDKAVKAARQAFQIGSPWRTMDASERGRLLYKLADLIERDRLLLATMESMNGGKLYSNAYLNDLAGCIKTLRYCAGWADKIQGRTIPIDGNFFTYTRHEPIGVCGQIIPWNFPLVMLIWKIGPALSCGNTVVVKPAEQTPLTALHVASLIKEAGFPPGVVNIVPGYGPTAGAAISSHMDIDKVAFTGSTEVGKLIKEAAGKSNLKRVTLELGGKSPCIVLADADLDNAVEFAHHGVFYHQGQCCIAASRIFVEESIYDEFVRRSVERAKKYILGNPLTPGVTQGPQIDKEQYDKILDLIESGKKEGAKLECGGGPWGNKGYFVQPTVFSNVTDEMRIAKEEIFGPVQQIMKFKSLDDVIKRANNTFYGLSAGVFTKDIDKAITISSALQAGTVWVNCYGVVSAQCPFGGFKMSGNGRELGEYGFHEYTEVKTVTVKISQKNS
With `c1ccc(Cn2c(SCc3cn4cccnc4n3)nnc2-c2ccco2)cc1` the Potency was inconclusive [inhibitor, single point]. With `N#Cc1ccc(Oc2ccc(C(F)(F)F)cc2NC(=O)c2ccc(F)cc2)cc1` the Potency was “inactive”. With `COC(=O)c1[nH]c2cc(C)ccc2c1NC(=O)CN1CCN(C(=O)c2ccco2)CC1` the Potency was inconclusive [inhibitor, single point]. In the case of `CCN(CC)S(=O)(=O)c1ccc2c(c1)nc(SCc1nc3ccsc3c(=O)[nH]1)n2CC`, the Potency is reported as inconclusive [inhibitor, partial curve]. With `COc1ccc(Nc2nc(NC(C)(C)C)nc(N3CCOCC3)n2)c(OC)c1` the Potency was “inactive”. For `Cn1cccc1CC(=O)N/N=C/c1cccc([N+](=O)[O-])c1`, the Potency was inconclusive [inhibitor, single point]. With `c1cncc(-c2noc(-c3ccco3)n2)c1` the Potency was inconclusive [inhibitor, single point]. With `CC(C)(C)Nc1nc(OCC#N)nc(N2CCCCC2)n1` the Potency was active: 17.8 µM. For `CCCCCCSC1=C(C#N)C(=O)NC2(CCCCC2)S1`, the Potency was “inactive”. For `NC/C=C\C(=O)O`, the Potency was “inactive”. `CCOC(=O)c1nnn(CC(=O)Nc2ccccc2OC)c1C(=O)OCC` was tested, and the Potency was “inactive”. In the case of `Cc1noc(C)c1COC(=O)c1cnc(Cl)c(Cl)c1`, the Potency is reported as active: 0.562 µM. For `O=C(CSc1ncccc1-c1nc2ccccc2[nH]1)NC1CC1`, the Potency was inconclusive [inhibitor, single point]. `O=C(NCc1ccco1)c1cc2ccccc2c(=O)o1` was tested, and the Potency was inconclusive [inhibitor, partial curve]. `COc1ccc(/C=C/c2c([N+](=O)[O-])c(=O)n(C)c(=O)n2C)cc1` was tested, and the Potency was inconclusive [inhibitor, single point]. With `Oc1cccc(/C=N/Nc2cc(N3CCOCC3)nc(N3CCOCC3)n2)c1` the Potency was inconclusive [inhibitor, single point]. `O=C(O)C(Oc1ccc2c3c(c(=O)oc2c1)CCC3)c1ccccc1` (stereo unspecified) was tested, and the Potency was inconclusive [inhibitor, partial curve]. `COc1ccc(C)cc1NC(=O)CN(Cc1nnc(-c2ccc(Cl)cc2)o1)C1CCCC1` was tested, and the Potency was inconclusive [inhibitor, single point]. For `CCC(C)N=C1SCC(C)(/C=N/O)S1` (stereo unspecified), the Potency was inconclusive [inhibitor, single point]. For `NC(N)=NC(=O)Cc1c(Cl)cccc1Cl`, the Potency was “inactive”. `O=C(Nc1ccc2oc(=O)ccc2c1)c1ccco1` was tested, and the Potency was inconclusive [inhibitor, partial curve].
